In all, about 71,000 compounds went through this assay and about 1,800 (2.5%) were called active. The inconclusive results got no clear call from the source; some entries with a clear call stand among them for comparison. The call rests on the fitted dose curve; in most records, active means well fitted activation curve with a large enough effect in the signal ratio, with a control signal flat (not every such curve was filed as active); inconclusive means small, poorly fitted or top-dose-only effect, or effect the other way, or a change in a side signal; inactive means flat fitted curve, though single readings scatter; the % refers to the signal ratio. A potency beside an inconclusive call is a rough fit, not a confirmed value.
Assay: Cell signaling CRE-BLA (Fsk stim); on activity change, negative = inhibition: % of control where 0% means no effect
Conditions: CHO CRE-bla reporter (cAMP response element driving beta-lactamase), forskolin EC10, beta-lactamase ratio; activity change, negative = inhibition: at 38.2 µM (top of the series) unless noted
Outline: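 Modulation of forskolin signalling: compounds in titration series added with EC10 NKH 477 to CHO cells carrying a CRE-driven beta-lactamase reporter, 3 h, 37C. CCF4 FRET ratio (460/530 nm, ex 405 nm) gives %activity and AC50.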
Potency means the concentration at half of the fitted maximal effect; tags describe the fitted curve by direction and shape.

SMILES	activity change, negative = inhibition	Potency
COc1ccccc1N1CCN(C(=O)CCNS(=O)(=O)c2ccc3c(c2)CCC(=O)N3)CC1	inconclusive: 8.09%	–
O=C(O)c1cccc(NS(=O)(=O)c2ccc3nnn(O)c3c2)c1	inconclusive: 5.91%	–
CCC(C)NC(=O)c1cn(CC)c2ccc(S(=O)(=O)N(C)C)cc2c1=O (stereo not drawn)	inconclusive: 26.5%	–
COc1cc(-c2nc3cnccn3c2Nc2ccccc2)ccc1O	–	inconclusive: 3.98 µM [rising, partial curve]
CC(=O)OCC1C2CC[C@H]3C(OCc4ccc(F)cc4C(F)(F)F)OC[C@]4(C)[C@H]3C2=C(CN4C(=O)OC(C)(C)C)[C@H](C)C1COC(C)=O (stereo partly drawn)	inactive: -1.46%	–
Cc1ccc(S(=O)(=O)N(CC(=O)NCc2ccco2)Cc2ccc(F)cc2)cc1	inconclusive: -23.2%	–
C1CCN(c2nc3nonc3nc2N2CCCC2)C1	inconclusive: 23.7%	–
COc1cccc(-c2nc(N(C)Cc3ccco3)c3ccccc3n2)c1	inconclusive: 19.3%	–
COc1ccc2cc1Oc1ccc(cc1)C[C@H]1c3cc(c(OC)cc3CCN1C)Oc1c(OC)c(OC)cc3c1[C@@H](C2)N(C)CC3	inconclusive: 15.6% [at 17.1 µM]	–
O=C(c1ccc(C#Cc2ccccc2)o1)N1CCN(c2ccccn2)CC1	–	inconclusive: 10 µM [falling, single point]
COc1cccc(C2c3c(oc4ccccc4c3=O)C(=O)N2CCCN(C)C)c1OC (stereo not drawn)	inactive: -11.5%	–
COC(=O)c1c(=O)n(O)c2ccc(OC)cc2[n+]1[O-]	–	inconclusive: 12.6 µM [falling, single point]
Cc1noc(C)c1-c1nc(Nc2ccccc2)c2ccccc2n1	inconclusive: 17.1%	–
Cc1ccc(-c2csc3nnc(SCC(=O)NCc4ccc5c(c4)OCO5)n23)cc1	–	inconclusive: 10 µM [rising, partial curve]
CC1=Nn2c(nnc2-c2n[nH]c3c2CCC3)SC1	–	inconclusive: 25.1 µM [rising, single point]
CCOc1ccc2nc(SCC#N)c(C#N)cc2c1	–	active: 5.01 µM
CC(=O)c1c(C(C)=O)c(C)n(-c2ccc(C(=O)O)cc2)c1C	inactive: 0.115%	–
Cc1ccc(NC(=O)CN2CC(C)SC2=NC2CCCCC2)cc1 (stereo not drawn)	inactive: -17%	–
Cc1noc(C)c1-c1cc(N2CCNCC2)ncn1	inactive: 6.22%	–
Cc1cccc(-n2cnc3c(c2=O)c2nc4ccccc4nc2n3Cc2ccco2)c1	–	inconclusive: 7.94 µM [rising, partial curve]
O=C(Nc1ccc(N2CCN(C(=O)c3ccccc3)CC2)cc1)c1cc2ccccc2o1	inconclusive: -16.2%	–
COC(=O)C1CCN(c2nc3ccccc3nc2C(C#N)C(=O)OCC(C)C)CC1 (stereo not drawn)	–	inconclusive: 5.01 µM [rising, partial curve]
CCCCNc1ncnc2c1cnn2-c1ccc(Cl)cc1	–	inconclusive: 7.94 µM [rising, partial curve]
Cn1c(/C(C#N)=C(\O)CN2CCN(Cc3ccccc3)CC2)nc2ccccc21	inactive: -5.54%	–
Cc1nc2nc(COc3ccccc3)nn2c(C)c1Cl	–	inconclusive: 10 µM [rising, partial curve]
CCOC(=O)c1ccc(Nc2cc(C)nc3ncnn23)cc1	inconclusive: 24.9%	–

SMILES	activity change, negative = inhibition	Potency
NC[C@@H]1O[C@H](O[C@H]2[C@H](O)[C@H](O[C@@H]3O[C@H](CO)[C@@H](O)[C@H](N)[C@@H]3O)[C@@H](N)C[C@H]2N)[C@@H](O)[C@H](O)[C@@H]1O	inactive: -0.281% [at 17.1 µM]	–
CC(=O)c1cnc2cc(-c3ccccc3)nn2c1C	inactive: 0.679%	–
COc1ccc(OCCSc2nnc3sc4ccccc4n23)cc1	–	active: 0.501 µM
O=C(CCC(=O)N(c1ccccc1)C(C(=O)NC1CCCC1)c1ccncc1)Nc1cccnc1 (stereo not drawn)	inactive: 15.9%	–
O=C(C[C@@H](c1ccccc1)N1CCCCC1)c1ccccc1	inactive: -8.84% [at 7.6 µM]	–
O=c1ccnc(S/C=C/c2ccccc2)[nH]1	inconclusive: -18.7%	–
Cc1cc(NC(=O)c2ccccc2NS(=O)(=O)c2c(C)c(C)cc(C)c2C)no1	–	inconclusive: 0.0398 µM [rising, full curve, poor fit]
O=c1c(O)c(-c2cccc(O)c2)oc2ccccc12	inconclusive: -4.09%	–
O=C(Sc1nnc(-c2ccccc2)o1)N1c2ccccc2Sc2ccccc21	inconclusive: -5.22% [at 7.6 µM]	–
NCCC[C@@H](CC(=O)N[C@@H]1CCNC[C@H]1C(=O)N[C@H](CC(=O)N[C@@H](CCC(=O)O)CC(=O)O)Cc1c[nH]c2ccccc12)NC(=O)C[C@H](Cc1c[nH]c2ccccc12)NC(=O)[C@@H]1CCCC[C@H]1N	inactive: -6.86%	–
O=C(NCCCN1CCN(c2cccc(Cl)c2)CC1)c1ccc(N2CCCC2=O)cc1	–	inconclusive: 12.6 µM [falling, partial curve]
C=CCn1sc(N)c(C(=O)OCC)c1=S	–	inconclusive: 5.01 µM [falling, single point]
O=c1ccc2cc(O)c(O)cc2o1	–	inconclusive: 10 µM [rising, partial curve]
Cc1ccc2nc(NC(=O)c3ccc(Cn4cc(Cl)cn4)o3)sc2c1	inactive: -2.43%	–
COC(=O)c1[nH]c2cccc(Cl)c2c1NC(=O)CN1CCCCC1C (stereo not drawn)	inconclusive: -3.74%	–
Cc1nc(NC(=O)C2CC3CCCC(C2)C3=O)sc1C (stereo not drawn)	inactive: 1.98%	–
COc1ccc(C2=CC(c3ccc(OC)c(OC)c3)n3nnnc3N2)c(OC)c1 (stereo not drawn)	–	inconclusive: 2 µM [rising, partial curve]
Cc1cccc(NC(=O)CCn2ccnc2C)c1	inconclusive: 5.32%	–
Nc1nc(NCc2ccccc2)nc(-c2ccccc2)n1	–	inconclusive: 25.1 µM [rising, single point]
COc1ccc(-c2ccc(-c3noc(-c4ccc(OC)c(OC)c4)n3)c(OC)n2)cc1	inconclusive: 22.1%	–
Cc1cccc(Cn2cnc3c(nnn3Cc3ccccc3F)c2=O)c1	–	active: 1.26 µM
O=C(CN1CCN(c2nc(-c3ccc(Cl)cc3)cs2)CC1)NCc1ccco1	inactive: -20.9%	–
COc1ccc(NC(=O)COc2ccccc2C#N)c(S(=O)(=O)N2CCCCC2)c1	–	inconclusive: 3.16 µM [falling, single point]
O=C(c1cnccn1)N1CCC2(CC1)CCN(c1ccccn1)CC2	inactive: 5.71%	–
O=c1c(-c2ccc(F)cc2)nc2cnc(Oc3ccccc3)nc2n1Cc1cccs1	–	inconclusive: 12.6 µM [rising, single point]
N#CCCn1nc(-c2ccccc2)cc1Nc1ccccc1NC(=O)c1cccs1	inconclusive: 1.15%	–

SMILES	activity change, negative = inhibition	Potency
COc1ccccc1N1CCN(C(CNS(=O)(=O)c2cc(F)ccc2F)c2cccnc2)CC1 (stereo not drawn)	inconclusive: -41.7%	–
C=CCn1c(-c2ccco2)n[nH]c1=S	inconclusive: 1.63% [at 7.6 µM]	–
COc1ccccc1NC(=O)CS(=O)(=O)c1cccc2nsnc12	inconclusive: -24.1%	–
COc1ccc(/C=N/n2c(SC)nnc2-c2ccccc2)cc1C	–	inconclusive: 7.94 µM [rising, partial curve]
COc1ccccc1CNc1ccnc(-c2ccccc2OC)n1	inactive: 2.13%	–
O=C(O)CSc1nnc2c3ccccc3c3ccccc3c2n1	–	inconclusive: 1 µM [falling, single point]
CCNc1ncc2nc(-c3cc(F)cc(F)c3)c(=O)n(C[C@H]3CCCO3)c2n1	–	inconclusive: 1.26 µM [rising, partial curve]
CCOC(=O)N1CCN(C(=O)C2CCN(S(=O)(=O)N(CC)CC)CC2)CC1	inconclusive: 2.16%	–
CC1(C)Cc2cccc(OCC(=O)N3CCN(S(=O)(=O)c4ccc(F)cc4)CC3)c2O1	inconclusive: -9.5%	–
COc1ccc(S(=O)(=O)n2ccnc2)c2cccnc12	inconclusive: 5.76%	–
COC(=O)c1nnn(-c2nonc2N)c1CSc1ccc(Cl)cc1	inactive: 12.2%	–
C/C(=N\O)C(=O)NCC1CCNCC1	inconclusive: -5.12%	–
CCOc1ccc(C(C)=O)cc1Cn1nc(C(=O)O)c2ccccc2c1=O	–	active: 6.31 µM
Cn1c(-n2c(CCN3C(=O)c4ccccc4C3=O)nc3ccccc3c2=O)nc2ccccc21	–	active: 3.16 µM
O=C(COc1ccc(S(=O)(=O)N2CCOCC2)cc1)Nc1ccc(Cl)c(C(F)(F)F)c1	inconclusive: 25.4%	–
Cc1cc(C)c2c(n1)nn1c(NCCCn3ccnc3)cc(C)nc21	inactive: 33.7%	–
COc1ccc(OC)c(N/C=C2/CCCCC2=O)c1	–	inconclusive: 10 µM [rising, partial curve]
CCn1cc(CNC(=O)c2cc(Cl)ccc2OC)c(C)n1	–	inconclusive: 3.16 µM [rising, single point]
CCOC(=O)c1cnn(-c2ccccn2)c1N	inconclusive: 6.32%	–
Cc1nn(-c2ccccc2)c2sc(C(=O)O)cc12	–	inconclusive: 6.31 µM [rising, partial curve]
O=C(CN(C1CCCCC1)S(=O)(=O)c1ccc(F)cc1)NC1CC1	inconclusive: -3.54% [at 7.6 µM]	–
Cc1cccc(N2CCN(C(=O)c3ccc(NC(=O)C4CCCO4)cc3)CC2C)c1 (stereo not drawn)	inconclusive: -5.88%	–
CCOC(=O)c1ccc(N2C(=O)c3n[nH]c(C)c3C2c2ccc(OC)cc2OC)cc1 (stereo not drawn)	inconclusive: 21.9%	–
C=CCn1c(SCC(=O)N2CC(=O)Nc3ccccc32)nc2scc(-c3cccs3)c2c1=O	–	inconclusive: 3.16 µM [rising, single point]
O=C1CSC(c2cn(-c3ccccc3)nc2-c2ccc3c(c2)OCCO3)N1CCN1CCOCC1 (stereo not drawn)	inconclusive: 28.3%	–
CC(=O)c1c(NCCc2ccccc2)cc(C)oc1=O	inconclusive: 7.28%	–
